From the antibiotic and cytotoxicity screens of Wong et al. (2023)
The list shows a part of the results.

Key:
[1] = test system: HSkMC (human skeletal muscle cells); test: cytotoxicity call (relative viability < 0.9); conditions: 10 µM
[2] = test system: HepG2; test: cytotoxicity call (relative viability < 0.9); conditions: 10 µM
[3] = test system: S. aureus RN4220; test: growth inhibition call (relative growth <= 0.2); conditions: 50 µM

Row | SMILES | cytotoxicity call [1] | cytotoxicity call [2] | growth inhibition call [3]
1 | C[C@@H]1CN([C@@H](C)CO)C(=O)Cc2cc(NC(=O)Nc3ccc(C(F)(F)F)cc3)ccc2O[C@@H]1CN(C)Cc1ccccc1 | active | active | inactive
2 | COc1cccc(C#Cc2ccc3c(c2)O[C@@H](CN(C)C(=O)CN2CCOCC2)[C@@H](C)CN([C@H](C)CO)S3(=O)=O)c1 | inactive | inactive | inactive
3 | CC(=O)OCC(=O)C1(O)C(OC(C)=O)CC2C3CCC4=CC(=O)C=CC4(C)C3(F)C(O)CC21C (configuration not stated) | inactive | inactive | inactive
4 | Cn1nc(-c2ccccn2)nc2c(=O)n(C)c(=O)nc1-2 | active | active | inactive
5 | CCCNC(=O)Nc1ccc2c(c1)C(=O)N(C)C[C@@H](OC)[C@@H](C)CN(C(=O)C1CCOCC1)[C@@H](C)CO2 | inactive | inactive | inactive
6 | COCC(=O)N1C[C@@H](C)[C@@H](OC)CN(C)C(=O)c2ccc(NC(=O)Nc3ccccc3)cc2OC[C@H]1C | inactive | inactive | inactive
7 | CC(C)NC(=O)Nc1ccc2c(c1)CC(=O)N([C@H](C)CO)C[C@@H](C)[C@H](CN(C)C(=O)Nc1ccc3c(c1)OCO3)O2 | inactive | inactive | inactive
8 | C[C@@H]1CCCCO[C@@H](CN(C)C(=O)C2CCCCC2)[C@@H](C)CN([C@@H](C)CO)C(=O)c2cc(NS(=O)(=O)c3cccs3)ccc2O1 | inactive | inactive | inactive
9 | COc1ccc(S(=O)(=O)N(C)C[C@@H]2OCCCC[C@@H](C)Oc3ccc(NS(=O)(=O)c4cn(C)cn4)cc3C(=O)N([C@H](C)CO)C[C@@H]2C)cc1 | inactive | inactive | inactive
10 | CC1OC(OCC2OC(Oc3c(-c4ccc(O)c(O)c4)oc4cc(O)cc(O)c4c3=O)C(O)C(O)C2O)C(O)C(O)C1O (configuration not stated) | inactive | inactive | inactive
11 | C[C@@H]1CN([C@@H](C)CO)C(=O)Cc2cc(NC(=O)Nc3ccccc3)ccc2O[C@@H]1CN(C)C(=O)Nc1cccc2ccccc12 | inactive | inactive | inactive
12 | O=C(C[C@H]1CC[C@H]2[C@@H](COC[C@@H](O)CN2S(=O)(=O)c2ccccc2F)O1)N1CCC(Cc2ccccc2)CC1 | inactive | inactive | inactive
13 | C[C@@H]1CN([C@H](C)CO)C(=O)Cc2cc(NC(=O)CCC(F)(F)F)ccc2O[C@H]1CN(C)C(=O)Nc1cccc2ccccc12 | inactive | inactive | inactive
14 | CNC[C@@H]1OCCCC[C@H](C)Oc2ccc(NC(=O)Nc3cccc4ccccc34)cc2C(=O)N([C@H](C)CO)C[C@@H]1C | inactive | inactive | inactive
15 | C[C@H](CO)N1C[C@H](C)[C@H](CN(C)S(=O)(=O)c2ccc(C#N)cc2)Oc2ncc(C#Cc3ccccc3)cc2C1=O | inactive | inactive | inactive
16 | c1ccc2nc(-c3cn[nH]c3)ccc2c1 | inactive | inactive | inactive
17 | C[C@H]1CN([C@@H](C)CO)C(=O)Cc2cc(NC(=O)Cc3ccccc3)ccc2O[C@H]1CN(C)S(=O)(=O)c1ccc(F)cc1 | inactive | inactive | inactive
18 | Cc1noc(C)c1NC(=O)N(C)C[C@@H]1Oc2ccc(NS(C)(=O)=O)cc2CC(=O)N([C@H](C)CO)C[C@H]1C | inactive | inactive | inactive
19 | C[C@@H]1CCCCO[C@@H](CN(C)C(=O)Cc2ccccc2)[C@@H](C)CN([C@@H](C)CO)C(=O)c2cc(NC(=O)Nc3ccccc3)ccc2O1 | inactive | inactive | inactive
20 | O=C(Nc1cc(C(F)(F)F)cc(C(F)(F)F)c1)Nc1cnn(-c2ccc([N+](=O)[O-])cc2)c1C(F)(F)F | inactive | active | inactive
21 | COCCN1C[C@@H]2CN(C(=O)c3cnn(C)c3)C[C@H]2C1=O | inactive | inactive | inactive
22 | C[C@@H]1CN([C@H](C)CO)C(=O)CCCn2nncc2CO[C@@H]1CN(C)C(=O)Nc1ccc(N2CCCCC2)cc1 | inactive | inactive | inactive
23 | CNC(=O)C[C@H]1CC[C@@H]2[C@H](COC[C@@H](O)CN2C(=O)c2ccccn2)O1 | inactive | inactive | inactive
24 | C[C@@H]1CCCCO[C@H](CN(C)C(=O)Nc2ccccc2)[C@@H](C)CN([C@H](C)CO)C(=O)c2cc(NC(=O)NC3CCCCC3)ccc2O1 | inactive | inactive | inactive
25 | C[C@H](CO)N1C[C@H](C)[C@H](CN(C)C(=O)Nc2ccc(F)cc2)OCCCC[C@H](C)Oc2ccc(NC(=O)Nc3ccc(F)cc3)cc2C1=O | inactive | inactive | inactive
26 | COc1ccc(CN(C)C[C@H]2OCCCC[C@@H](C)Oc3ccc(NC(=O)Nc4ccc5c(c4)OCO5)cc3C(=O)N([C@H](C)CO)C[C@H]2C)cc1 | inactive | active | inactive
27 | CCN1C[C@H](C(=O)N2CCN(c3ncccc3C(N)=O)CC2)CC1=O | inactive | inactive | inactive

Row | SMILES | cytotoxicity call [1] | cytotoxicity call [2] | growth inhibition call [3]
28 | COc1ccc(CN(C)C[C@H]2OCCCC[C@@H](C)Oc3ccc(NS(=O)(=O)c4cccs4)cc3C(=O)N([C@@H](C)CO)C[C@@H]2C)cc1 | inactive | inactive | inactive
29 | C[C@@H]1CN([C@@H](C)CO)C(=O)c2cc(C3=CCCCC3)cnc2O[C@@H]1CN(C)C(=O)CN1CCOCC1 | inactive | inactive | inactive
30 | C[C@@H]1CN([C@@H](C)CO)S(=O)(=O)c2ccc(-c3ccc(C#N)cc3)cc2O[C@H]1CN(C)C(=O)CN(C)C | inactive | inactive | inactive
31 | NCc1ccccc1-c1ccsc1 | inactive | inactive | inactive
32 | C[C@@H]1CN([C@H](C)CO)C(=O)c2cc(NS(C)(=O)=O)ccc2O[C@@H](C)CCCCO[C@@H]1CN(C)Cc1ccncc1 | inactive | inactive | inactive
33 | CN(C)CC#Cc1ccc([C@@H]2[C@H](CO)N3C(=O)CN(C(=O)CN(C)C)C[C@@H]23)cc1 | inactive | inactive | inactive
34 | C=C(NC(=O)C(=C)NC(=O)c1csc(C2=N[C@H]3c4csc(n4)[C@H]4NC(=O)c5csc(n5)[C@H](C(C)(O)[C@@H](C)O)NC(=O)[C@H]5CSC(=N5)C(=CC)NC(=O)[C@H]([C@@H](C)O)NC(=O)c5csc(n5)[C@]3(CC2)NC(=O)[C@H](C)NC(=O)C(=C)NC(=O)[C@H](C)NC(=O)[C@H]([C@H](C)CC)N[C@@H]2C=Cc3c([C@H](C)O)cc(nc3[C@H]2O)C(=O)O[C@@H]4C)n1)C(N)=O (some centres not stated) | active | active | inactive
35 | Cc1nc2[nH]c(C)c(CCC(=O)O)c(=O)n2n1 | inactive | inactive | inactive
36 | C[C@@H]1CN([C@H](C)CO)C(=O)c2cccc(NC(=O)Nc3ccc(C(F)(F)F)cc3)c2O[C@@H]1CN(C)Cc1ccc(C(F)(F)F)cc1 | active | active | inactive
37 | C[C@@H]1CCCCO[C@@H](CN(C)C(=O)NC2CCCCC2)[C@H](C)CN([C@H](C)CO)C(=O)c2cc(NC(=O)CCC(F)(F)F)ccc2O1 | inactive | inactive | inactive
38 | C[C@@H]1CN([C@H](C)CO)C(=O)c2cc(NC(=O)Nc3ccc(C(F)(F)F)cc3)ccc2O[C@@H]1CN(C)Cc1ccc2c(c1)OCO2 | inactive | active | inactive
39 | C[C@@H]1CN([C@H](C)CO)C(=O)c2cccc(NC(=O)Nc3ccc4c(c3)OCO4)c2O[C@@H]1CN(C)Cc1ccc(C(F)(F)F)cc1 | inactive | inactive | inactive
40 | C=CC[C@@H](CC(=O)NCCO)C(=O)NC[C@H](OC(=O)[C@@H](CC=C)CC(=O)OC(C)(C)C)c1ccccc1 | inactive | inactive | inactive
41 | C[C@H](CO)N1C[C@H](C)[C@@H](CN(C)S(C)(=O)=O)Oc2ncc(C#Cc3cccnc3)cc2C1=O | inactive | inactive | inactive
42 | C=CCON1C(=O)[C@@H]2[C@@H](C1=O)[C@@H]1C=C[C@@H]2O1 | inactive | inactive | inactive
43 | COc1ccc(CN(C)C[C@H]2OCCCC[C@H](C)Oc3ccc(NC(=O)NC(C)C)cc3C(=O)N([C@@H](C)CO)C[C@H]2C)cc1 | inactive | inactive | inactive
44 | COc1ccc(CN(C)C[C@H]2OCCCC[C@@H](C)Oc3ccc(NC(=O)C4CCCCC4)cc3C(=O)N([C@H](C)CO)C[C@@H]2C)cc1 | inactive | inactive | inactive
45 | CC(C)NC(=O)N(C)C[C@H]1Oc2cc(C#Cc3cccc(F)c3)ccc2S(=O)(=O)N([C@@H](C)CO)C[C@@H]1C | inactive | inactive | inactive
46 | Cc1cc2nc3ccc(N(C)C)cc3[s+]c2cc1N.[Cl-] | active | active | inactive
47 | O=C(C[C@H]1C[C@@H]2c3cc(NC(=O)NC4CCCC4)ccc3O[C@@H]2[C@@H](CO)O1)NCc1ccc2c(c1)OCO2 | inactive | inactive | inactive
48 | O=C(C[C@@H]1C=C[C@@H](NC(=O)Cc2ccccn2)[C@@H](CO)O1)NCCCN1CCOCC1 | inactive | inactive | inactive
49 | COc1ccc(CN(C)C[C@H]2Oc3ccc(NS(C)(=O)=O)cc3CC(=O)N([C@@H](C)CO)C[C@H]2C)cc1 | inactive | inactive | inactive
50 | C[C@H](CO)N1C[C@H](C)[C@H](CN(C)CC2CCCCC2)Oc2c(NC(=O)Nc3cccc4ccccc34)cccc2C1=O | inactive | inactive | inactive
51 | COc1ccc(NC(=O)N(C)C[C@H]2Oc3ccc(NS(=O)(=O)c4c(C)noc4C)cc3C(=O)N([C@@H](C)CO)C[C@H]2C)cc1 | inactive | inactive | inactive
52 | COc1cccc(C#Cc2ccc([C@H]3[C@H]4CN(S(=O)(=O)c5ccccc5C)CC(=O)N4[C@H]3CO)cc2)c1 | inactive | inactive | inactive
53 | C[C@@H]1CN([C@H](C)CO)C(=O)c2cc(NC(=O)Nc3ccc(F)cc3)ccc2O[C@@H]1CN(C)Cc1ccc(Oc2ccccc2)cc1 | active | active | inactive
54 | COc1ccccc1C#Cc1cnc2c(c1)C(=O)N([C@H](C)CO)C[C@@H](C)[C@H](CN(C)C(=O)CN(C)C)O2 | inactive | inactive | inactive
